# Assay results reported in PubChem BioAssay (NCATS).
# Values joined by “and” are separate entries in the source; they are usually repeats but may differ in a detail not shown here. Identical values can stand only once. The inconclusive results got no clear call from the source; some entries with a clear call stand among them for comparison. For part of these data: A potency beside an inconclusive call is a rough fit, not a confirmed value. For part of these data: “Side channel” marks fits to a control or component signal instead of the main read-out. Active and inactive are the calls of the source. Unless noted, the call rests on the fitted dose curve.
# Tests used:
# [1] = biological target: Estrogen receptor (Homo sapiens) (UniProt P03372); test: qHTS assay for small molecule antagonists of estrogen receptor alpha signaling (AID 588513; active means well fitted curve in the direction sought with a large enough effect in the signal ratio, with a control signal flat, not every such curve was filed as active; inconclusive means small, poorly fitted or top-dose-only effect, or effect the other way, or a change in a side signal; inactive means no such curve, though single readings can be large or run the other way; the % refers to the signal ratio; further: potency means the concentration at half of the fitted maximal effect; on activity, negative = inhibition: on the % scale 0 is the no-effect control and ±100 the full control effect); conditions: ER-alpha-UAS-bla HEK293, beta-lactamase ratio, antagonist mode; activity, negative = inhibition: at 76.9 µM (top of the series) unless noted
# UniProt P03372, sequence (P03372 whole entry, looked up): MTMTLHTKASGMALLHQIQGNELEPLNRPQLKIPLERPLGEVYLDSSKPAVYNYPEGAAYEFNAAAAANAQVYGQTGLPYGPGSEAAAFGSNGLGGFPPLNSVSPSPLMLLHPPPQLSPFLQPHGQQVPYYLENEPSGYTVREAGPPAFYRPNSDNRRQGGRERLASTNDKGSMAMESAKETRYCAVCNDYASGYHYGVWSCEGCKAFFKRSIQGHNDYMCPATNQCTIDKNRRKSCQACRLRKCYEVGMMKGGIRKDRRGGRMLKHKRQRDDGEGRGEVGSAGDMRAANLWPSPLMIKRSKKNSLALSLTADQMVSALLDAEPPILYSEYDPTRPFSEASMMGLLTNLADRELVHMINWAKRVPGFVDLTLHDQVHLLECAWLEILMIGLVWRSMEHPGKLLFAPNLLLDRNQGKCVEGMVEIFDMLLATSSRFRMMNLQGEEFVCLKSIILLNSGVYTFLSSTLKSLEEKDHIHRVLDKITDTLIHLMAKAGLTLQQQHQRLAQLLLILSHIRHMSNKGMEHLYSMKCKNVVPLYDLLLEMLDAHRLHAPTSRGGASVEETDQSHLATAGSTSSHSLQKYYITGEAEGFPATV
# Method in brief: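 ER-alpha-UAS-bla GripTite HEK 293 cells in 2% charcoal/dextran-treated FBS medium; compounds titrated (1:2, duplicate), then stimulated with 0.5 nM 17-beta-estradiol for 18 h at 37C. CCF4 beta-lactamase fluorescence; Hill-fit IC50 and efficacy.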
# [2] = biological target: Peroxisome proliferator-activated receptor delta (Homo sapiens) (UniProt Q03181); test: qHTS assay for small molecule antagonists of peroxisome proliferator-activated receptor delta signaling (AID 588535; active means well fitted inhibition curve with a large enough effect in the signal ratio, with a control signal flat, not every such curve was filed as active; inconclusive means small, poorly fitted or top-dose-only effect, or effect the other way, or a change in a side signal; inactive means no such curve, though single readings can be large or run the other way; the % refers to the signal ratio); conditions: HEK293T PPARd-UAS-bla, beta-lactamase FRET ratio, 18 h; activity change, negative = inhibition: at 76.7 µM (top of the series) unless noted
# UniProt Q03181, sequence (Q03181 whole entry, looked up): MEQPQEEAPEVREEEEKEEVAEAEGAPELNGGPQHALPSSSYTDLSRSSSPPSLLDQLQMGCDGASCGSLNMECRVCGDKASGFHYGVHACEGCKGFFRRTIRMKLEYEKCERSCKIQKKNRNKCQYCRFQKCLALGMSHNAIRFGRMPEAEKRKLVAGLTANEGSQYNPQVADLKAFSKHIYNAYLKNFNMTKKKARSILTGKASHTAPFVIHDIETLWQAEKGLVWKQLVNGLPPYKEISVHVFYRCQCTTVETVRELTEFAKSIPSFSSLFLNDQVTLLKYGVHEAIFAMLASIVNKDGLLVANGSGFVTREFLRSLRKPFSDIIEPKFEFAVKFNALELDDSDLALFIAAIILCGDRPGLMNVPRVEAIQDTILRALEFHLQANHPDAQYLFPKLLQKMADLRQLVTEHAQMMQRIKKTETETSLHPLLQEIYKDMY
# Method in brief: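 Inhibition of PPAR-delta response element-driven beta-lactamase expression is measured in HEK293T cells exposed to a compound titration series for 18 hrs at 37 C. Half-maximal inhibition comes from Hill equation fitting.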
# [3] = biological target: Peroxisome proliferator-activated receptor gamma (Homo sapiens) (UniProt P37231); test: qHTS assay for small molecule antagonists of peroxisome proliferator-activated receptor gamma signaling (AID 588537; active means well fitted inhibition curve with a large enough effect in the signal ratio, with a control signal flat, not every such curve was filed as active; inconclusive means small, poorly fitted or top-dose-only effect, or effect the other way, or a change in a side signal; the % refers to the signal ratio;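 further: reporter cells co-stimulated with 50 nM rosiglitazone agonist during compound treatment; % of control where 0% means no effect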); conditions: HEK293 PPARg-UAS-bla, beta-lactamase ratio, antagonist mode
# Method in brief: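 Compounds are tested as concentration series for inhibition of rosiglitazone-driven (50 nM) reporter expression in GeneBLAzer PPAR-gamma-UAS-bla HEK293 cells. After 16 h at 37 C, CCF4 substrate is added for 2 h at room temperature and blue/green fluorescence is measured.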
# [4] = biological target: Vitamin D3 receptor (Homo sapiens) (UniProt P11473); test: qHTS assay for small molecule antagonists of vitamin D receptor signaling (AID 588541); conditions: HEK293T VDR-UAS-bla, beta-lactamase ratio, antagonist mode; activity change, negative = inhibition: at 76.7 µM (top of the series); further: potency means the concentration at half of the fitted maximal effect;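 on activity change, negative = inhibition: receptor activated by calcitriol during compound treatment; on the % scale 0 is the no-effect control and ±100 the full control effect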
# [5] = biological target: Peroxisome proliferator-activated receptor gamma (Homo sapiens) (UniProt P37231); test: qHTS assay for small molecule agonists of peroxisome proliferator-activated receptor gamma signaling (AID 588536; active means well fitted curve in the direction sought with a large enough effect in the signal ratio, with a control signal flat, not every such curve was filed as active; inconclusive means small, poorly fitted or top-dose-only effect, or effect the other way, or a change in a side signal; inactive means no such curve, though single readings can be large or run the other way; the % refers to the signal ratio;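 further: 0% = DMSO basal wells and 100% = rosiglitazone at 2 µM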); conditions: HEK293 PPARg-UAS-bla, beta-lactamase ratio, 16 h; activation: at 76.7 µM (top of the series), percent of rosiglitazone response, DMSO as zero unless noted
# Method in brief: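 Compound treatment: 16 h, 37 C, HEK293 GeneBLAzer cells. Detection: CCF4, 2 h RT. Values: Hill-fit EC50, efficacy as % of 2 uM rosiglitazone.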
# [6] = biological target: Vitamin D3 receptor (Homo sapiens) (UniProt P11473); test: qHTS assay for small molecule agonists of vitamin D receptor signaling (AID 588543); conditions: HEK293T VDR-UAS-bla, beta-lactamase ratio, 16 h; activation: at 76.8 µM (top of the series);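 further: 0% = DMSO basal and 100% = reference agonist control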
# Method in brief: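 VDR-UAS-bla HEK293T cells, 2000/well, 2% charcoal-stripped FBS; compound titration 16 h at 37 C; CCF4 beta-lactamase ratio read. Normalized to 50 nM 1-alpha,25-dihydroxyvitamin D3 (100%) and DMSO; Hill fit gives EC50, efficacy.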
# [7] = biological target: Thyroid hormone receptor beta (Homo sapiens) (UniProt P10828); test: qHTS assay for small molecule antagonists of thyroid hormone receptor beta signaling (AID 588547; active means well fitted inhibition curve with a large enough effect in the signal ratio, with a control signal flat, not every such curve was filed as active; inconclusive means small, poorly fitted or top-dose-only effect, or effect the other way, or a change in a side signal; the % refers to the signal ratio; further: potency means the concentration at half of the fitted maximal effect); conditions: TR-UAS-bla HEK293, beta-lactamase ratio, antagonist mode, 18 h
# UniProt P10828, sequence (P10828 whole entry, looked up): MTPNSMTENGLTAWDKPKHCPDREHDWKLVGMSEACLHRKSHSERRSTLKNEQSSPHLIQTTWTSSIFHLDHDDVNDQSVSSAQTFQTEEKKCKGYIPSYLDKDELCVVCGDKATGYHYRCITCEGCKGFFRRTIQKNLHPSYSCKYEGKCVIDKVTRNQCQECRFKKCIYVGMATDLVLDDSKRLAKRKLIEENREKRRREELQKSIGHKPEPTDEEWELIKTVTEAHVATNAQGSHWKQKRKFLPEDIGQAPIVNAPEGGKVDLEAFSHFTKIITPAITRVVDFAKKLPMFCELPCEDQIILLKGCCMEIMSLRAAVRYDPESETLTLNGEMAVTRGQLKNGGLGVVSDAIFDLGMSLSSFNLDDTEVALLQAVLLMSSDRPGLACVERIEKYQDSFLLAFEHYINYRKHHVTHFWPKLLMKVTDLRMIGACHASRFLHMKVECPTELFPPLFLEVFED
# Method in brief: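 TR-UAS-bla GripTite HEK293 cells in 2% charcoal/dextran FBS medium were preincubated 4 h at 37 C, given compound (0.59 nM to 92 uM) plus 0.4 nM T3 (final) for 18 h, then CCF4 for 2 h at RT; Hill fit gave IC50.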
# [8] = qHTS assay for small molecule agonists of the antioxidant response element (ARE) signaling pathway (AID 651741; active means well fitted activation curve with a large enough effect in the signal ratio; inconclusive means small, poorly fitted or top-dose-only effect, or effect the other way, or a change in a side signal; the % refers to the signal ratio; further: potency means the concentration at half of the fitted maximal effect; on activation: % of control where 0% means no effect); conditions: HepG2 ARE-bla reporter, beta-lactamase FRET ratio, 16 h; activation: at 96 µM (top of the series) unless noted
# Method in brief: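 Reporter: beta-lactamase under ARE, stably in HepG2. Exposure: 16 h, 37 C, compounds delivered in DMSO by pin tool after 5 h cell preincubation. Readout: FRET substrate fluorescence after 2 h at RT.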
# [9] = qHTS assay for small molecule activators of the p53 signaling pathway (AID 651743; active means well fitted activation curve with a large enough effect in the signal ratio, not every such curve was filed as active; inconclusive means small, poorly fitted or top-dose-only effect, or a change in a side signal; the % refers to the signal ratio; further: potency means the concentration at half of the fitted maximal effect); conditions: HCT-116 p53RE-bla, beta-lactamase FRET ratio, 16 h; activation: active compounds read high
# Method in brief: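 Agonist-mode quantitative HTS in HCT-116 cells carrying a p53-response-element beta-lactamase reporter; 16 h compound treatment at 37 C, then FRET substrate loading for 2 h at room temperature and fluorescence read.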
# [10] = biological target: Retinoic acid receptor RXR-alpha (Homo sapiens) (UniProt P19793); test: qHTS assay for small molecule agonists of retinoid X receptor alpha signaling (AID 588544); conditions: HEK293T RXRa-UAS-bla, beta-lactamase reporter, 18 h; activation: at 76.7 µM (top of the series) unless noted;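 further: 0% = DMSO basal wells and 100% = reference agonist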
# UniProt P19793, sequence (P19793 whole entry, looked up): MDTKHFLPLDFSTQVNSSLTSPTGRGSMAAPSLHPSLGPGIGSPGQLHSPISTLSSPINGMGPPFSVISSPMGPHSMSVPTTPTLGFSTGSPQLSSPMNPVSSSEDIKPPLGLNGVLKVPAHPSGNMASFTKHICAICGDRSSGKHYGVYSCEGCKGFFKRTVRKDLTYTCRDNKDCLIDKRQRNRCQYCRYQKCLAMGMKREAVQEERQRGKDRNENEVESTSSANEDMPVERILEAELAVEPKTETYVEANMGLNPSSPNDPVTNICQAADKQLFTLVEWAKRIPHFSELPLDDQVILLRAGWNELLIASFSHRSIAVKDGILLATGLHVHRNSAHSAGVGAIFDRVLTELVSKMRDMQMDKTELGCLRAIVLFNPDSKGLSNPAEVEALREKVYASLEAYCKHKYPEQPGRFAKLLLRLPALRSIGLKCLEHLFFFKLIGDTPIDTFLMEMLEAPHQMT
# [11] = biological target: Tumor necrosis factor (Homo sapiens) (UniProt P01375); test: qHTS assay to identify small molecules that stimulate Tumor Necrosis Factor-alpha (TNF-alpha) secretion (AID 651757; active means well fitted curve in the direction sought with a large enough effect in the signal ratio; inconclusive means small, poorly fitted or top-dose-only effect, or a change in a side signal; inactive means no such curve, though single readings can be large or run the other way; the % refers to the signal ratio; further: 0% is about no effect); conditions: Human cells, HTRF 665/615 ratio; activation (TNF-alpha secretion): at 92.2 µM (top of the series)
# UniProt P01375, sequence (P01375 whole entry, looked up): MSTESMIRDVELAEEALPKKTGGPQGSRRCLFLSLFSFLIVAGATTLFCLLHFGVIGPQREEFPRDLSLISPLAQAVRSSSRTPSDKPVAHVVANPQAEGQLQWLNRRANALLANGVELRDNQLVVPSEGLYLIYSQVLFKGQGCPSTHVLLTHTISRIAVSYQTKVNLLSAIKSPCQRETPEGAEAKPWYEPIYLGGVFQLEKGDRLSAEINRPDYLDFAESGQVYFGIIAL
# Method in brief: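 Human monocytic THP-1 cells are plated, treated with compound and held at 37 C for 17 hrs. Labeled anti-TNF-alpha antibody mixture is then added; after 3 hr at room temperature, TR-FRET signal reports secreted TNF-alpha.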
# [12] = qHTS assay to identify small molecules that stimulate interleukin-8 (IL-8) secretion (AID 651758; active means well fitted activation curve with a large enough effect in the signal ratio; inconclusive means small, poorly fitted or top-dose-only effect, or effect the other way, or a change in a side signal; the % refers to the signal ratio; further: potency means the concentration at half of the fitted maximal effect); conditions: HTRF ratio (665/615); activation: at 92.2 µM (top of the series)
# Method in brief: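 Quantitative HTS in THP-1 monocytic cells at 2000 cells per well, with 16 hrs compound incubation at 37 C. IL-8 in the medium was then quantified by HTRF immunoassay, read after 1-3 hrs at room temperature.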
# [13] = biological target: Nuclear receptor ROR-gamma (Homo sapiens) (UniProt P51449); test: qHTS assay for small molecule antagonists of the retinoid-related orphan receptor gamma (ROR-gamma) signaling pathway (AID 651802; active means well fitted curve in the direction sought with a large enough effect; inconclusive means small, poorly fitted or top-dose-only effect, or another doubt; inactive means no such curve, though single readings can be large; an effect the other way counts as inactive or inconclusive; further: potency means the concentration at half of the fitted maximal effect; nearly all actives have a fitted effect of over 60% in size)
# UniProt P51449, sequence (P51449 whole entry, looked up): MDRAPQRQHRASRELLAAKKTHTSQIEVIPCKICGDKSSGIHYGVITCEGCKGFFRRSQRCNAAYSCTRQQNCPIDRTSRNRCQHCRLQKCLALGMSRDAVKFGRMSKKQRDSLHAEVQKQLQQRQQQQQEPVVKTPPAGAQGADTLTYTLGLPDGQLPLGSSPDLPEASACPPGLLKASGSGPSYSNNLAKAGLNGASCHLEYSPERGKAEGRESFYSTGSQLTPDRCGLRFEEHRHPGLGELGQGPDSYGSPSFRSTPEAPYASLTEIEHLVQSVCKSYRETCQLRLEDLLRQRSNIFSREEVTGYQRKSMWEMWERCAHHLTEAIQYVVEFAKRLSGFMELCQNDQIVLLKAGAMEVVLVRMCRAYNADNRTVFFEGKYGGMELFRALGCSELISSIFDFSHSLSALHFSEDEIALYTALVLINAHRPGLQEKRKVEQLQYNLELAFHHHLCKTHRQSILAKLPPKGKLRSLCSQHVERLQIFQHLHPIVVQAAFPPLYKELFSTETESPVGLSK
# Method in brief: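 Steps: cells dispensed; compound or DMSO transferred by pin tool; doxycycline added to induce the ROR response element-driven luciferase; plates held 16hr at 37C; ONE-Glo added and luminescence measured.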
# [14] = biological target: Retinoic acid receptor RXR-alpha (Homo sapiens) (UniProt P19793); test: qHTS assay for small molecule antagonists of retinoid X receptor alpha signaling (AID 588546; active means well fitted inhibition curve with a large enough effect in the signal ratio, with a control signal flat, not every such curve was filed as active; inconclusive means small, poorly fitted or top-dose-only effect, or effect the other way, or a change in a side signal; inactive means no such curve, though single readings can be large or run the other way; the % refers to the signal ratio;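 further: cells stimulated with 9-cis-retinoic acid as agonist; on the % scale 0 is the no-effect control and ±100 the full control effect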); conditions: HEK293T RXRa-UAS-bla, beta-lactamase ratio, antagonist mode
# Method in brief: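 Beta-lactamase reporter inhibition, read as CCF4 fluorescence ratio (ex 405, em 460/530 nm) after 2 h at RT. HEK293T UAS-bla cells, 2500/well, were stimulated with 9-cis-RA at 500 or 100 nM final alongside test compound for 18 h at 37 C.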
# [15] = qHTS assay for small molecule agonists of the antioxidant response element (ARE) signaling pathway measured by Nrf2-dependant transcriptional activity (AID 720636; active means well fitted curve in the direction sought with a large enough effect in the repeat runs; inconclusive means weak or mixed curves; inactive means no such curve, though single readings can be large; an effect the other way counts as inactive or inconclusive;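 further: HepG2 cells with an ARE-driven luciferase reporter; % of control where 0% means no effect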)
# Method in brief: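 Attachment 6 hr at 37 C, then compound versus DMSO vehicle for 16 hr in ARE-luc HepG2 cells (1% dialyzed FBS); luminescence recorded 30 min after ONE-Glo addition at room temperature.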
# [16] = activity, negative = inhibition: at 76.8 µM (top of the series)
# Tags describe the fitted curve by direction and shape or compound fluorescence and quenching.
structure (smiles),measurement,setting,value
CCCCOC(=O)[C@@H](C)Oc1ccc(Oc2ccc(C#N)cc2F)cc1,"activity, negative = inhibition",[1],inconclusive: -25.5%
same,"activity change, negative = inhibition",[2],inconclusive: -17.2%
same,Potency,[3]; [16],inactive
same,Potency,[4],"inconclusive: 15.8 µM [side channel, rising, single point]"
CC1(C)CCC(Cc2ccc(Cl)cc2)C1(O)Cn1cncn1 (centres undefined),Potency,[1],"inconclusive: 44.7 µM [inhibitor, single point]"
same,"activity change, negative = inhibition",[2],inconclusive: -11.6%
same,activation,[5],inconclusive: -22.9%
same,Potency,[3]; [16],inactive
same,Potency,[6],inactive
same,Potency,[7],"inconclusive: 0.398 µM [side channel, falling, full curve, poor fit]"
same,activation,[8],inconclusive: 15.3%
CCOP(=O)(O)C(N)=O,Potency,[1],inactive
same,Potency,[2],inactive
same,Potency,[3]; [16],inactive
same,Potency,[8],inactive
CN/C(=N\[N+](=O)[O-])NCc1cnc(Cl)s1,"activity, negative = inhibition",[1],inconclusive: -16%
same,Potency,[8],"inconclusive: 61.1 µM [activator, partial curve]"
same,Potency,[9],"inconclusive: 28.2 µM [side channel, falling, partial curve, poor fit]"
CCCCOCCOP(=O)(OCCOCCCC)OCCOCCCC,"activity, negative = inhibition",[1],inconclusive: -0.483%
same,"activity change, negative = inhibition",[2],inconclusive: -29.6%
same,"activity, negative = inhibition",[3]; [16],inconclusive: -20.8%
same,"activity, negative = inhibition",[3]; at 76.8 µM (top of the series),inactive: -1.38%
same,Potency,[10],inactive
same,Potency,[8],"inconclusive: 75 µM [activator, single point] and inconclusive: 61.1 µM [activator, single point]"
same,activation (TNF-alpha secretion),[11],inconclusive: 0.794%
same,Potency,[12],"inconclusive: 47.3 µM [activator, partial curve, poor fit]"
same,Potency,[13],"inconclusive: 42.2 µM [inhibitor, partial curve, poor fit]"
C=CCOC(=O)C(C)(C)OC(=O)c1cc(-n2c(=O)cc(C(F)(F)F)n(C)c2=O)ccc1Cl,"activity, negative = inhibition",[1],inconclusive: -48.6%
same,Potency,[5],inactive
same,Potency,[3]; [16],inactive
same,"activity change, negative = inhibition",[4],inconclusive: -27.6%
same,max response,[14],inactive: 23.7%
CCCN(CC)CC1COC2(CCC(C(C)(C)C)CC2)O1 (centres undefined),Potency,[1],inactive
same,Potency,[7],"inconclusive: 8.91 µM [cytotoxic, side channel, full curve, poor fit]"
same,Potency,[15],inactive
CC(C)OC(=O)Nc1ccccc1,Potency,[1],inactive
same,Potency,[6],inactive
same,Potency,[7],"inconclusive: 0.0316 µM [cytotoxic, side channel, full curve, poor fit]"
same,Potency,[8],inactive
